# Data published in PubChem BioAssay AID686978 (National Center for Advancing Translational Sciences (NCATS), 2013).
# Out of some 420,000 compounds screened, about 64,000 (15%) were called active. The inconclusive results got no clear call from the source; some entries with a clear call stand among them for comparison. Calls come from the whole dose curve; as a rule, active = well fitted inhibition curve with a large enough effect; inconclusive = small, poorly fitted or top-dose-only effect; inactive = flat fitted curve, though single readings scatter. Potencies of inconclusive entries are left out as doubtful fits.
# Assay: qHTS for Inhibitors of human tyrosyl-DNA phosphodiesterase 1 (TDP1): qHTS in cells in absence of CPT; note: nearly all actives have a fitted effect of over 55% in size
# Conditions: DT40 Tdp1-/- hTDP1 cells, no CPT, ATP luminescence, 48 h; activity change, negative = growth inhibition: at 46.2 µM (top of the series) unless noted
# In short: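 Readout: luminescence from CellTiter-Glo after 30 min in the dark at RT. Cells: DT40 Tdp1-/- with stable hTDP1, 400/well. Exposure: compounds alone, ≥48 hr, 37 °C.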
# % is set by controls: 0 for no effect and ±100 for the full control effect; potency is the fitted concentration of half-maximal effect; tags give direction and shape of the fitted curve.
Structure (SMILES),Potency,"activity change, negative = growth inhibition"
COc1ccc2c(c1)c1c(c(=O)n(-c3ccc(C)cc3)c(=O)n1CC(=O)NCC1CCCO1)n2C (stereo not given),"inconclusive [inhibitor, single point]",
c1ccc(Oc2c3ccccc3nc3ccccc23)cc1,active: 20.6 µM,
COCCN(C(=O)CCc1ccccc1OC)c1nnc(-c2cccnc2)s1,"inconclusive [inhibitor, single point]",
O=C(Nc1ccc(N2CCOCC2)nc1)c1ccc(C(F)(F)F)cc1,"inconclusive [inhibitor, single point]",
COc1ccc(N(CC(=O)NCCSC2CCCCC2)S(=O)(=O)c2ccccc2)cc1OC,"inconclusive [inhibitor, single point]",
Cc1ccc2nc(C)cc(NCCO)c2c1,"inconclusive [inhibitor, full curve]",
O=C(Nc1cc(S(=O)(=O)N2CCOCC2)ccc1N1CCCC1)c1ccc(F)cc1,"inconclusive [inhibitor, partial curve, poor fit]",
CCN1C(=O)[C@H]2[C@@H](c3ccc(-c4ccc(C(C)=O)cc4)c(OC)c3)N[C@@](Cc3ccccc3)(C(=O)OC)[C@H]2C1=O,"inconclusive [inhibitor, single point]",
Cc1ccc(C23CC4CC(CC(NC(=O)NN)(C4)C2)C3)cc1,"inconclusive [inhibitor, single point]",
Cc1ccc(C)c(S(=O)(=O)c2cn(Cc3ccccc3)c3cc(N4CCCC4)c(F)cc3c2=O)c1,"inconclusive [inhibitor, single point]",
CCCn1c(NCc2c[nH]c3ccccc23)nc2ccccc21,"inconclusive [inhibitor, partial curve]",
COc1cc(C)c(CN2CCN(C(C)C(=O)NC(C)c3ccccc3)CC2)cc1OC (stereo not given),,inactive: -25.2%
CC(C)c1c(C(=O)N/N=C/c2cccc3ccccc23)nnn1-c1nonc1N,"inconclusive [inhibitor, single point]",
CCOc1ccc(NC(=O)Cn2c(=O)n(CC(=O)NCCc3ccccc3)c(=O)c3sccc32)cc1,,inactive: -3.69%
CC(C)c1ccc(NC(=O)C(Cc2ccccc2)n2cccc2)cc1 (stereo not given),active: 16.4 µM,
O=C(c1ccncc1)N1CCC[C@@]2(CCN(C(c3ccccc3)c3ccccc3)C2)C1,"inconclusive [inhibitor, single point]",
CCCC(C)NC(=O)CSc1nc(-c2ccccc2)cn1N (stereo not given),"inconclusive [inhibitor, partial curve]",
N#Cc1ccc(-c2cccnc2)nc1SCC(=O)Nc1sc2c(c1C#N)CCC2,,inactive: -23.9%
Cc1cc2sc3ccc(C#CC4(O)CCCCC4)cc3c(=O)c2cc1C,"inconclusive [inhibitor, partial curve]",
Cc1ccc2c(c1)N1C(=O)c3ccccc3C1C1=C(CC(C)(C)CC1=O)N2 (stereo not given),,inactive: -11.6%
Cc1cccc(C)c1NC(=O)c1cc(S(=O)(=O)N2CCCc3ccccc32)ccc1F,active: 4.11 µM,
CCNc1nc(SCc2ccccc2)nc(N2CCOCC2)n1,"inconclusive [inhibitor, single point]",
CC(C)C[C@H](NC(=O)c1[nH]cnc1C(=O)N[C@@H](C)C(=O)OCc1ccccc1)C(=O)OC(C)(C)C,"inconclusive [inhibitor, single point]",
COC(=O)c1cc(CN2CCN(c3ccccc3C)CC2)ccc1O,"inconclusive [inhibitor, partial curve]",

Structure (SMILES),Potency,"activity change, negative = growth inhibition"
Nc1c(S(=O)(=O)c2cccs2)c2nc3ccccc3nc2n1Cc1ccccc1,"inconclusive [inhibitor, single point]",
CCc1cccc2c(C(=O)COC(=O)c3c(C)noc3C)c[nH]c12,"inconclusive [inhibitor, partial curve]",
Cn1cccc1C(=O)N/N=C/c1c(Cl)cccc1Cl,,inactive: -15.8%
CN1C(=O)C2(c3ccccc31)C1CCCC=C1C(C#N)=C(N)C2(C#N)C#N (stereo not given),"inconclusive [inhibitor, single point]",
CCN1C(=O)C(Cc2nc3ccccc3c(=O)n2C)c2ccccc21 (stereo not given),active: 14.6 µM,
Cc1cc(CNC(=O)CCc2nnc(CCCc3ccccc3)o2)nn1C,,inactive: -3.55%
CCCN1CCC(=O)N(CCSc2ccc(C)cc2)CC1,"inconclusive [inhibitor, single point]",
Cc1ccc(C(=O)SC2=NCCS2)cc1,,inactive: -20.8%
O=C(NCCCn1ccnc1)C(=O)Nc1ccccc1,"inconclusive [inhibitor, single point]",
CCCN(CCC)CCNC(=O)c1cc2c(=O)n(CC)c3ccccc3c2s1,"inconclusive [inhibitor, partial curve, poor fit]",
COc1ccc(/C=C/C(=O)NC(=S)N2CCN(c3ccccn3)CC2)cc1,"inconclusive [inhibitor, partial curve]",
CCc1ccc2c(Cl)c(C(=O)N/N=C/c3c[nH]c4ccccc34)sc2c1,"inconclusive [inhibitor, single point]",
CCc1ccccc1OCC(=O)NNCC(=O)Nc1cccc(C#N)c1,"inconclusive [inhibitor, partial curve, poor fit]",
COc1cccc(NC(=O)c2oc3ccccc3c2NC(=O)c2ccc(OC(C)C)cc2)c1,"inconclusive [inhibitor, single point]",
O=C(CSc1ncnc2c(-c3ccc(Cl)cc3)nsc12)c1ccccc1,"inconclusive [inhibitor, partial curve]",
CCn1cc(C(=O)NCc2ccc(Cl)cc2)c(=O)c2cc(S(=O)(=O)N3CCc4ccccc4C3)ccc21,"inconclusive [inhibitor, full curve]",
CC(=O)Nc1nonc1-c1nnc(SCC(=O)Nc2c(C)cccc2C)n1-c1ccccc1,,inactive: -29%
CN(Cc1ccccc1)c1ccc(/C=C/c2nc3ccccc3s2)cc1,active: 0.1 µM,
FC(F)(F)c1ccccc1NC1=NCCC1,,inactive: -0.956%
CC(=O)c1cccc(NC(=O)NCCc2c[nH]c3ccccc23)c1,,inconclusive: -36.8% [inhibitor]
CC(=O)NC(Cc1c(F)c(F)c(F)c(F)c1F)C(=O)NCC(N)C(=O)c1ccccc1 (stereo not given),active: 20 µM,
COc1ccccc1C(CCNCc1ccccc1)c1ccc(OC(C)C)cc1 (stereo not given),active: 20.6 µM,
COc1ccc2c(CNCCc3ccco3)c(C(=O)O)n(Cc3ccc(F)cc3)c2c1,"inconclusive [inhibitor, single point]",
Cc1ccc(NC(=O)CCC(=O)N2CCC(C)CC2)c([N+](=O)[O-])c1,,inactive: -13%

Structure (SMILES),Potency,"activity change, negative = growth inhibition"
[O-][n+]1onc2c1CCc1nnc(-c3ccccc3)cc1-2,"inconclusive [inhibitor, partial curve, poor fit]",
O=C(CCc1nnc2ccc(NCc3ccccc3)nn12)NCC1CCN(C2CCCC2)C1 (stereo not given),,inactive: -1.09%
Cc1cccc(N2C(=O)C(CC(=O)Nc3ccccc3)N(C3CCCCC3)C2=O)c1 (stereo not given),,inconclusive: -32% [inhibitor]
COc1cccc(C(=O)Nc2nc3nc(C)c(Cc4ccccc4)c(=O)n3[nH]2)c1,"inconclusive [inhibitor, single point]",
CCOC(=O)c1c(NC(=S)N2CCOCC2)sc2c1CCN(C(=O)OCC)C2,"inconclusive [inhibitor, single point]",
O=C(O)CN(Cc1ccco1)S(=O)(=O)c1ccc(F)cc1,,inactive: 2.93%
COc1cc2c(cc1NC(=O)C(Cl)Cl)-c1ccc(NC(=O)C(Cl)Cl)cc1C2,active: 8.2 µM,
Cc1cccc(C)c1NC(=O)NNC(=O)c1cc(C(C)(C)C)nn1Cc1ccccc1,,inconclusive: -35.1% [inhibitor]
Cc1ccc(NC(=O)NC2CCCCCCC2)c(C)c1,,inactive: -0.354%
CCC(Oc1ccccc1)C(=O)NCc1ccc(S(N)(=O)=O)cc1 (stereo not given),,inactive: -19.3%
CCCCC[C@H](O)/C=C/[C@@H]1[C@H]2C/C(=C/CCCC(=O)O)O[C@H]2C[C@H]1O,,inactive: -0.881%
O=C(Nc1nnc([C@@H]2C[C@H](O)[C@@H](CO)O2)s1)NC(c1ccccc1)c1ccccc1,"inconclusive [inhibitor, single point]",
CCOc1nc(N=C(N)N)nc2c(C)cccc12,active: 23.1 µM,
Cc1cc(C)n2c(SCC(=O)N(CC(C)C)c3c(N)n(CC(C)C)c(=O)[nH]c3=O)nnc2n1,,inactive: 7.52%
CCCOc1ccc(-c2nc(SCc3ccccc3)[nH]c(=O)c2C#N)cc1OC,"inconclusive [inhibitor, single point]",
CCOC(=O)c1c(C)[nH]c(C)c1S(=O)(=O)N(C)CC(=O)N1CCN(c2cccc(C)c2C)CC1,"inconclusive [inhibitor, single point]",
COc1ccc(O)c(CN2CCC3(CC2)c2ccccc2[C@@H](NC(=O)c2cccc(F)c2)[C@@H]3OC)c1,active: 16.4 µM,
CCOC(=O)CC1(CC(=O)OCC)NC(=O)c2c(C)sc(C(=O)OCC)c2N1,"inconclusive [inhibitor, partial curve]",
O=C(CN1CCN(S(=O)(=O)c2ccc(F)cc2)CC1)N1CCOCC1,,inactive: 0.749%
CCC(C)(C(=O)NC1CCCC1)N(C)C(=O)c1ccccn1 (stereo not given),,inactive: -1.76%
CCOC(=O)c1c(C)oc2nc(C)nc(NCCCN3CCN(c4ccccc4OC)CC3)c12,active: 23.1 µM,
O=C(CSc1nc(-c2ccc(Cl)cc2)[nH]c(=O)n1)Nc1cccc(Cl)c1,,inactive: -8.25%
